Over roughly 110,000 compounds, “z-score” has its median near -0.1; the highest 2% begin near 2. This is one part of the list. Calls of active or inactive are those of the source.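 Rule for the calls: active = z-score in the third read window above 3 or below -3; inactive = the rest.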

For the experiment, the target named is Metabotropic glutamate receptor 8 (Rattus norvegicus) (UniProt P70579). The experiment can be described thus: mGluR8 Gi/Go-coupled signaling modulation – cell-based, rat, thallium flux, HTS, primary screen (AID 488969). As to conditions: HEK293 rat mGluR8, GIRK (G protein-gated inwardly rectifying potassium channel) thallium flux, FluoZin2; at 10 µM; stronger effect = higher value; submaximal glutamate (EC20) added with thallium.
Chain of UniProt P70579 (P70579 whole entry, looked up): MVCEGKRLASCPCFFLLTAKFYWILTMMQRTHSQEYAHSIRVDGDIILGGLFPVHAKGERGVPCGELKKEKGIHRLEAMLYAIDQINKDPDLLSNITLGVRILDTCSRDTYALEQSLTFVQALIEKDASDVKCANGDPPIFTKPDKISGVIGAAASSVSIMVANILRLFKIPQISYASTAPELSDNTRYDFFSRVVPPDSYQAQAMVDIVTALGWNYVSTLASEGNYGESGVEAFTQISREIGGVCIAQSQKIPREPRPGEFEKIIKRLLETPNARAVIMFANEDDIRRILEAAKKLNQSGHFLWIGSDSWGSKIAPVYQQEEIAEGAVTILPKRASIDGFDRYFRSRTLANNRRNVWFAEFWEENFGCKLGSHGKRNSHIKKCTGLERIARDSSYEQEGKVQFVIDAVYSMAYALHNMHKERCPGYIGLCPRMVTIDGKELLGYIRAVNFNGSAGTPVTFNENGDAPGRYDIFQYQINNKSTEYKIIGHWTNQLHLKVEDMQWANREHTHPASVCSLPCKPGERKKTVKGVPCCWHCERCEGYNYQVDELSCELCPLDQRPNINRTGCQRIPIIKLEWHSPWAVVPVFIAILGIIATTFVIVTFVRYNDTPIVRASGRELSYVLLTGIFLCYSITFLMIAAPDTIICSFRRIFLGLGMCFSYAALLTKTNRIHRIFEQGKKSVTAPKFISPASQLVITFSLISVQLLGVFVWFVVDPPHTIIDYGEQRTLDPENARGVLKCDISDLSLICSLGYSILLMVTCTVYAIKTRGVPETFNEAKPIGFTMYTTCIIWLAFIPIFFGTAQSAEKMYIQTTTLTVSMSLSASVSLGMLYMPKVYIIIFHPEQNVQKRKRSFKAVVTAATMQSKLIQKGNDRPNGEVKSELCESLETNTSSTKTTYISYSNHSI
The molecule `COc1ccc(/C=N/NC(=O)C(Cc2c[nH]c3ccccc23)NC(=O)OCC(C)C)cc1[N+](=O)[O-]` (stereo unspecified) showed a z-score of -0.0825.

`CC(O)[C@H](NC(=O)C1(c2ccccc2)CCN(C(=O)OC(C)(C)C)CC1)C(=O)O` (stereo partly specified) displayed a z-score of -0.163.

`O=c1[nH]c(-c2ccncc2)nc2ccccc12` displayed a z-score of 0.441.

Regarding `Cc1cccc(-n2c(C)cc(C(=O)NC3CCCCC3)c2C)c1`, the z-score was -0.484.

For the molecule `COc1ccccc1N1C(=O)C2CC(C)=C(C)CC2C1=O` (stereo unspecified), the z-score is -1.37.

With `O=C(O)C1CCCN1S(=O)(=O)c1ccccc1` (stereo unspecified), the z-score is 0.165.

With `Cc1cccc(Nc2nc(N)nc(CC(=O)CSc3ccc(Cl)cc3)n2)c1`, the z-score is 0.0332.

For the molecule `CCOc1ccccc1NC(=O)c1cccc2c1C(=O)N(CCOC)C2`, the z-score is -0.0529.

With `COc1cccc(-n2nnc3c(=O)n(Cc4ccccc4Cl)cnc32)c1`, the z-score was found to be 0.295.

`CCOC(=O)C(Cc1ccccc1)C(=O)Nc1cccc2ccccc12` (stereo unspecified) returned a z-score of -0.627.

`O=C1NC(c2cccc(Br)c2)=N/C1=C\c1ccco1` showed a z-score of -0.0235.

The molecule `CCOC(=O)c1cc2c(=O)n3ccccc3nc2n(CC(C)C)c1=NC(=O)c1c(-c2c(F)cccc2Cl)noc1C` returned a z-score of -0.0956.

For the molecule `Clc1ccc(C2=Nn3c(nnc3-c3cccnc3)SC2)s1`, the z-score is -0.878.

`CC(C)C(=O)Nc1nc2cc3c(cc2s1)OCO3` showed a z-score of 0.0741.

`COc1cccc2sc(NC(=O)c3ccc(Br)s3)nc12` came in with a z-score of 0.601.

`Cc1nn2c(c1-c1ccc(Cl)cc1)N=C(c1ccco1)CC2c1ccccc1` (stereo unspecified) displayed a z-score of -0.204.

Regarding `CCOC(=O)c1ccccc1OCc1cc(/C=N/n2cnnc2)ccc1OC`, the z-score was 1.25.

In turn, `Cc1ccccc1-c1nnc2c3ccccc3c(C)nn12` showed a z-score of -2.4.

In turn, `CSc1ccc(C(=S)N2CCN(C(c3ccccc3)c3ccccc3)CC2)cc1` displayed a z-score of -0.121.

`CN1C2C=C3C(C#N)=C(N)C(C#N)(C#N)[C@@H](c4ccsc4)[C@@H]3C1CC2` (stereo partly specified): the z-score is active: 4.01.

`O=C1CC(C(=O)N2CCOCC2)C2(CCCC2)O1` (stereo unspecified): the z-score was -0.46.

Consider `CCOC(=O)c1c(C2CC2)csc1NC(=O)COC(=O)c1cnc(Cl)c(Cl)c1`, for which the z-score was -0.208.

In turn, `CNC(=O)CC(C(=O)O)c1ccc(OCC(C)C)cc1` (stereo unspecified) yielded a z-score of 1.1.

`CCc1ccc(C(=O)c2cncc(Br)c2)cc1` came in with a z-score of -0.261.

Take `CC1=C(C#N)C(c2cn(-c3ccccc3)nc2-c2cccs2)C(C#N)=C(C)N1`: the z-score was -0.831.

`Cc1ccc(C(C(=O)NC2CCCC2)N2CCCC(C)C2)cc1` (stereo unspecified) registered a z-score of -1.63.

`COc1cc2c(cc1OC)CN(C(=O)C(C)(C)C)CC2` returned a z-score of -0.104.

`Nc1ccc(-n2nnnc2CN2CCOCC2)cc1` showed a z-score of -0.215.

In turn, `CCCC(=O)NC(NC(=S)Nc1ccc(S(N)(=O)=O)cc1)C(Cl)(Cl)Cl` (stereo unspecified) gave a z-score of -0.285.

Molecule `CC(C)OC(=O)c1ccc(COC(=O)c2cccc(-c3nnc(-c4ccccc4)o3)c2)cc1` gave a z-score of -0.101.

With `COc1ccc(/C=C/C(=O)OCC(=O)Nc2ccc(OC)c(S(=O)(=O)N3CCCCC3)c2)cc1`, the z-score was -0.323.

`COc1ccc(CCC(C)Nc2cccc(F)c2)cc1` (stereo unspecified) came in with a z-score of -0.259.

With `Cc1cc(Cl)c(OCCOCCN2CCC(C)CC2)c(Br)c1`, the z-score amounted to 0.348.

The molecule `CC(C)CCn1c(CN2CCN(C(=O)c3ccco3)CC2)nc2c1c(=O)n(C)c(=O)n2C` came in with a z-score of 0.0621.

The molecule `COc1ccc(NC(=O)CSc2ncccc2C(=O)OC(C)C)cc1OC` gave a z-score of -0.26.

`C=CCOC(=O)C1=C(C)N=C2SCCC(=O)N2C1c1cccs1` (stereo unspecified) showed a z-score of -0.795.

With `CCOC(=O)CSc1nc2ccccc2c(=O)n1C1CCCC1`, the z-score is 0.684.

`CN1/C(=C/C=N/n2cnnc2)C(C)(C)c2ccccc21` came in with a z-score of -0.518.

In the case of `CN(C)S(=O)(=O)c1ccc2[nH]cc(/C=C/c3nc4ccccc4c(=O)n3-c3ccccc3)c2c1`, the z-score is -0.677.

`Cc1ccc(CCNC(=O)NC(C)(C)C)cc1`: the z-score was -0.427.

`COc1c2occc2cc2ccc(=O)oc12` showed a z-score of -0.548.

Consider `CCC(C)(C(=O)NC1CCCCC1)N(Cc1ccco1)C(=O)c1ccc2c(c1)OCO2` (stereo unspecified), for which the z-score was -0.0657.

On to `O=C(Oc1c(Cl)cc(Cl)c2cccnc12)N1CCCCC1`, for which the z-score came to 0.0706.

With `O=C(NC(=S)N1CCOCC1)C12CCC3CC(CC(C3)C1)C2`, the z-score turned out to be 0.411.

With `COc1cc(CN2CCN(c3cc(C)ccc3C)CC2)cc([N+](=O)[O-])c1O`, the z-score came to 0.0603.

`O=C(CCS(=O)(=O)Cc1ccccc1)N1CCc2ccccc2C1` registered a z-score of -0.136.

Molecule `CCCc1nnc(SCCSc2nnc(CCC)n2N)n1N` showed a z-score of 0.314.

`CCc1cc2cc(C)ccc2nc1SCC(=O)N1CCN(C(=O)c2ccco2)CC1` yielded a z-score of 1.74.

Molecule `Cc1cccc(C)c1OCC(O)Cn1nnc2ccccc21` (stereo unspecified) came in with a z-score of -0.0886.

In turn, `Cc1ccc(CCc2nnc(SCC(=O)Nc3ccccc3Cl)n2-c2ccccc2)o1` returned a z-score of -0.43.

On to `O=c1ccn(Cc2ccccc2Cl)cc1`, for which the z-score is -0.259.

`O=C(O)c1ccc2noc(-c3ccccc3)c2c1` showed a z-score of 0.475.

On to `COc1ccc(N2CCN(C(=O)c3ccc(NS(=O)(=O)c4cccc(F)c4)cc3)CC2)cc1`, for which the z-score is -0.764.

Regarding `CCC(=O)Nc1cccc(NC(=S)NC(=O)c2cccc(C)c2)c1`, the z-score amounted to 0.23.

For the molecule `N#Cc1c(-c2ccc(Cl)cc2)ccn2nc(CCC(=O)O)nc12`, the z-score was -0.136.

For `OCCn1c(Cl)nc2ccccc21`, the z-score worked out at 0.583.

`CS(=O)(=O)Nn1cnc2ccccc2c1=O` showed a z-score of 0.271.

On to `O=C(COC(=O)Cc1ccc(Cl)cc1Cl)Nc1ccc(OC(F)F)cc1`, for which the z-score was -0.0649.

In turn, `CCCCc1ccc(Nc2ncnc3nc[nH]c23)cc1` came in with a z-score of 2.82.

`CC(C)(C)c1ccc(C(=O)Nn2c(CCC(=O)O)ccc2-c2cccs2)cc1` displayed a z-score of 0.244.

Turning to `Cc1cc(Cl)c(OCCCn2cncn2)c(Br)c1`, the z-score was 0.958.

Turning to `CC1CCC(N2CCN(S(C)(=O)=O)CC2)CC1` (stereo unspecified), the z-score is -0.836.

`NC(=O)CC[C@H](NC(=O)OCc1ccccc1)C(=O)OCc1ccc(Cl)cc1` displayed a z-score of -0.325.

The molecule `CCn1cc(C(=O)N2CCN(Cc3ccc4c(c3)OCO4)CC2)c(=O)c2ccc(C)nc21` displayed a z-score of -0.451.

Molecule `Nc1ccc2oc(-c3ccccn3)nc2c1` registered a z-score of -0.214.

As for `CCN1CCN(C(c2ccccc2F)c2nnnn2Cc2ccc3c(c2)OCO3)CC1` (stereo unspecified), the z-score was found to be 0.762.

In the case of `COc1ccc(-c2nc(-c3ccccc3)c(-c3cc([N+](=O)[O-])ccc3C)[nH]2)cc1O`, the z-score is -0.815.

As for `COc1ccc(OCCNc2cc(N3CCCCC3)ccc2[N+](=O)[O-])cc1`, the z-score is -0.255.

The molecule `C=C(C)c1cccc(C(C)(C)NC(=O)N2CCN(CC)CC2)c1` had a z-score of -0.189.

Take `CN(C)/C=C1\C(=O)N(c2ccc([N+](=O)[O-])cc2)N=C1c1ccccc1`: the z-score was -0.166.

Molecule `O=C(OCCN1C(=O)c2ccccc2C1=O)c1cccc(OC(F)F)c1` came in with a z-score of 0.266.

These data come from PubChem BioAssay AID488969 (Vanderbilt High Throughput Screening Facility, 2010).
